Measured values reported in publication PMC4848477.
These are yes or no findings as the source states them, for the method shown. For some assays here: In cells and extracts the contact can be indirect. Some entries that bind do so weakly or less than the wild type.

Sequences of proteins named here, by UniProt entry; tags and fusion partners are left off. A change or cut given only in a name is not applied to a line headed by its entry. Residues count along the entry.
UniProt P63086: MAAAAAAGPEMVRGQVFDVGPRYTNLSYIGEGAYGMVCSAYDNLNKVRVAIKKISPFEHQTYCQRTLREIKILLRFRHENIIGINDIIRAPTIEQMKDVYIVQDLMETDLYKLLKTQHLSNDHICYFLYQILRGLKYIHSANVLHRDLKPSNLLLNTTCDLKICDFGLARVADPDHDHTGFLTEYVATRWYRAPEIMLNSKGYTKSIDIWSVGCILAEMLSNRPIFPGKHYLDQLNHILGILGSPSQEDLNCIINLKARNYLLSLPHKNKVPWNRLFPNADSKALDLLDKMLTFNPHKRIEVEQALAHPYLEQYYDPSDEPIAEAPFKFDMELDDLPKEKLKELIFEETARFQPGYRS
UniProt P18887: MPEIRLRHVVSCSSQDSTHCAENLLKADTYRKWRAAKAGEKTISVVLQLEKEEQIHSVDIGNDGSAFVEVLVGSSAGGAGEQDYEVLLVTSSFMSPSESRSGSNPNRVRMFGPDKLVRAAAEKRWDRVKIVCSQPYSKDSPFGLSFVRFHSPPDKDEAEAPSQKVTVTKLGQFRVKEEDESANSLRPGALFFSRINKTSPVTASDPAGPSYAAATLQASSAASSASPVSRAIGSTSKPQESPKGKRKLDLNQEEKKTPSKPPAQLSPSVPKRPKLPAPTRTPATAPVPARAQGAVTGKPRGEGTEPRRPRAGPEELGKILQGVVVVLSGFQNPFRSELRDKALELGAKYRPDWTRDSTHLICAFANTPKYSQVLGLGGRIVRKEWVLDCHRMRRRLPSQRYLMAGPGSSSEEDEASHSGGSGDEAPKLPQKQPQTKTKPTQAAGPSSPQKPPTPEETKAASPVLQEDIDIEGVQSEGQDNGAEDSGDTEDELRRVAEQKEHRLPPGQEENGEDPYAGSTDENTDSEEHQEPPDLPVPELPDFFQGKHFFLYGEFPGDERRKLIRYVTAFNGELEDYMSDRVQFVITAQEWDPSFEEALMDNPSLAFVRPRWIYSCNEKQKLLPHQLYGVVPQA
UniProt P02769, residues 25-607: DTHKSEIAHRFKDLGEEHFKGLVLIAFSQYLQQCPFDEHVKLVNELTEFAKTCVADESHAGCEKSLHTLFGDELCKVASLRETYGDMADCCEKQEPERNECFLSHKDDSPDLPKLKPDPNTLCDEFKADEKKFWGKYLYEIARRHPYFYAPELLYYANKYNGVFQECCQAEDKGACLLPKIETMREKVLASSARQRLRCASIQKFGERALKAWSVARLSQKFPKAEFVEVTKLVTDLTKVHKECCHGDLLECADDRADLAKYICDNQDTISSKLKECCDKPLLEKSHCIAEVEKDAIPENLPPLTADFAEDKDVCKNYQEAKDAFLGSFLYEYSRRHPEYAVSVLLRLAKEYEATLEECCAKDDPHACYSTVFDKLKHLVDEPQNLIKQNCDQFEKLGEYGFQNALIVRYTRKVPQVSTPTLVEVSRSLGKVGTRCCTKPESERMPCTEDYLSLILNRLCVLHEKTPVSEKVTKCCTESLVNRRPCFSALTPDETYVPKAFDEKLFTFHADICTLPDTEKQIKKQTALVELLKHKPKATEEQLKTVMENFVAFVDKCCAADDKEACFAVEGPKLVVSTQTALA
UniProt P63085: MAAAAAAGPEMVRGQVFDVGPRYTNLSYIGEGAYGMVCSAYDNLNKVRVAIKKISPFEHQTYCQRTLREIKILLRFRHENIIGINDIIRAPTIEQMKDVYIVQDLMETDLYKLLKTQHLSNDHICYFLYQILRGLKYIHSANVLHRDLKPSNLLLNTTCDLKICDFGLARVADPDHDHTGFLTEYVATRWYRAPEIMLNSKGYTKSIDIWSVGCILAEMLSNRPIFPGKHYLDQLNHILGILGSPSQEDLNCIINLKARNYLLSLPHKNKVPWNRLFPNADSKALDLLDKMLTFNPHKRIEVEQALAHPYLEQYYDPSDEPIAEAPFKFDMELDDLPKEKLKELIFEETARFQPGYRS
UniProt P09874: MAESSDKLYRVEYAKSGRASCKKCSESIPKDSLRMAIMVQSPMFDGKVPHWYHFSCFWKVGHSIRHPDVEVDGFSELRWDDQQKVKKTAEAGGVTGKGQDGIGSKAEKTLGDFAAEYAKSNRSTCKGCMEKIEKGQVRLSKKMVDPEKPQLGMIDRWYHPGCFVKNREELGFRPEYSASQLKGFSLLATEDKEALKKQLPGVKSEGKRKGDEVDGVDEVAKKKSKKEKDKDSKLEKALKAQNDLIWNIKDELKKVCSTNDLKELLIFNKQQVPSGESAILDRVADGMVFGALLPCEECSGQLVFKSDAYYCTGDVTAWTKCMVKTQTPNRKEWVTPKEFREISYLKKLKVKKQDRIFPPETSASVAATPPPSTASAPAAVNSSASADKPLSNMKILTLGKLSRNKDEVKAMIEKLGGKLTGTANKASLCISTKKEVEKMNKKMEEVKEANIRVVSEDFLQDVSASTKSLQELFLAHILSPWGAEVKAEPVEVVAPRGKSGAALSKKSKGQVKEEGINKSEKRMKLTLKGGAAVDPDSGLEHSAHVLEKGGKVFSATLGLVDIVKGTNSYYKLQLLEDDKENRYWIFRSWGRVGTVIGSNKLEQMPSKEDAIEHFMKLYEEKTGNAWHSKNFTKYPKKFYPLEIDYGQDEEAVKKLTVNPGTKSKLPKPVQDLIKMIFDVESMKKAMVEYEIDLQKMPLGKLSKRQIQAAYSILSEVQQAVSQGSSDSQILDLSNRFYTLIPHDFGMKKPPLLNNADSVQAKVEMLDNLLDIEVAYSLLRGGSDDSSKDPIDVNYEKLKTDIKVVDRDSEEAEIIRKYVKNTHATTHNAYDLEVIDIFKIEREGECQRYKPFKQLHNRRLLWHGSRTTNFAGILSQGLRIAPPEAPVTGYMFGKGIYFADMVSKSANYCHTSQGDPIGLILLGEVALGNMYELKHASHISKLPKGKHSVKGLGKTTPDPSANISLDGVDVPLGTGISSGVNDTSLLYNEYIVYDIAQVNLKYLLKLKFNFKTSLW
UniProt Q01147: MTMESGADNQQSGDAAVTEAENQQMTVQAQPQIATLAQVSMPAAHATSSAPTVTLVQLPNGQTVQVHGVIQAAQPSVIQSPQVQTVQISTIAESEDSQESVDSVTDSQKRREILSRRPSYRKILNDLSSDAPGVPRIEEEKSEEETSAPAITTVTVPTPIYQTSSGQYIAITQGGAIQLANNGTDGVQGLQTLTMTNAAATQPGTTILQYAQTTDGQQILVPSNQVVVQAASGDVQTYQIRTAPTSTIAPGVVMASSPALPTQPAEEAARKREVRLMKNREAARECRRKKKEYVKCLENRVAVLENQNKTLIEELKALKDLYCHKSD
UniProt P27008: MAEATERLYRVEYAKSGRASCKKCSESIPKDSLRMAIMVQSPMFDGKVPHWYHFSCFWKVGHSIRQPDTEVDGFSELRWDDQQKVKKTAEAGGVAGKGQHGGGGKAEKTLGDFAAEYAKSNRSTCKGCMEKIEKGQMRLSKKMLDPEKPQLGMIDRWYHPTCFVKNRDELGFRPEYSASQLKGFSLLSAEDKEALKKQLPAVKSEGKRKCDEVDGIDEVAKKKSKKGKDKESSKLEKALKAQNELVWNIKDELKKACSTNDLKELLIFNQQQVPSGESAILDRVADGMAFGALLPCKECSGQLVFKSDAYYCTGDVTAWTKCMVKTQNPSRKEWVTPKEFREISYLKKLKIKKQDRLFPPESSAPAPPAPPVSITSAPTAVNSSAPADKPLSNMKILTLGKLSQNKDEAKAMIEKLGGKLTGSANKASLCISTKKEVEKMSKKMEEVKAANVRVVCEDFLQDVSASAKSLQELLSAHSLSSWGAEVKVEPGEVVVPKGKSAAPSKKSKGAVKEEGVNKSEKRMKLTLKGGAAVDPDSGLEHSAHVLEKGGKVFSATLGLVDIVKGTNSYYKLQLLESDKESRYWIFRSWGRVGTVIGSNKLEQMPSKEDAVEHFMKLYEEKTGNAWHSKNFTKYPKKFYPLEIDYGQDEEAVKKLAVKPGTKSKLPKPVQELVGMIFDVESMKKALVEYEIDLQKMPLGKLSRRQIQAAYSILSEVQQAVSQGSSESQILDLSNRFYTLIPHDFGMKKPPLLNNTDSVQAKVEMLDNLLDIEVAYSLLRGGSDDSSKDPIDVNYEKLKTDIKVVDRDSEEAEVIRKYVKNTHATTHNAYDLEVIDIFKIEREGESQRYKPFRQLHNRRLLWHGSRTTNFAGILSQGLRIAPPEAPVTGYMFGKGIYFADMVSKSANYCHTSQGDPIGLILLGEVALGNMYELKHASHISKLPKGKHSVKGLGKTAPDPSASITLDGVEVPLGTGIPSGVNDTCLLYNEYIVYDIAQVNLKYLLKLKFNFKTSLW

Columns and labels:
[1] = biological target: recombinant phosphorylated Erk2 (UniProt P63086); assay: co-IP; recombinant proteins, r-PARP1 200 nM and r-p-Erk2 200 nM, in the presence of ssDNA (400 nM) and βNAD (dose series); both purified
[2] = biological target: XRCC1 (X-ray repair cross complementing protein-1) (UniProt P18887); assay: far-Western, overlay or dot blot; dot blot: r-p-Erk2 (1 μg) and control proteins on nitrocellulose; incubated 3 h at room temperature with 5 μg/ml purified recombinant PARP1, PARP1 domains or polyADP-ribosylated PARP1 in 50 mM Tris-HCl pH7.5, 120 mM NaCl, 0.1% NP40, 0.5 mM PMSF, 20 mg/ml BSA; detected with antibodies; both purified
[3] = biological target: recombinant phosphorylated Erk2 (UniProt P63086); assay: as above
[4] = biological target: recombinant phosphorylated Erk2 (UniProt P63086); assay: co-IP; recombinant proteins, r-PARP1 200 ng and r-p-Erk2 200 ng, in the presence of ssDNA (1 μg); both purified
[5] = biological target: recombinant phosphorylated Erk2 (UniProt P63086); assay: co-IP; recombinant proteins, r-PARP1 200 ng and r-p-Erk2 200 ng, with ssDNA (1 μg) and the recombinant A-B domain of PARP1 (200 ng); both purified
[6] = biological target: recombinant phosphorylated Erk2 (UniProt P63086); assay: co-IP; recombinant proteins, 200 ng each, no ssDNA; antibody against the c-terminal of Erk2 or against PARP1 (Alexis, ALX210-302); Protein A/G Agarose Beads; both purified
[7] = biological target: BSA (bovine (from the name BSA)) (UniProt P02769); assay: far-Western, overlay or dot blot; dot blot: r-p-Erk2 (1 μg) and control proteins on nitrocellulose; incubated 3 h at room temperature with 5 μg/ml purified recombinant PARP1, PARP1 domains or polyADP-ribosylated PARP1 in 50 mM Tris-HCl pH7.5, 120 mM NaCl, 0.1% NP40, 0.5 mM PMSF, 20 mg/ml BSA; detected with antibodies; both purified
[8] = biological target: phosphorylated Erk2, endogenous in mouse cerebral neurons and hippocampal slices (mouse (endogenous in cerebral neurons and hippocampal slices)) (UniProt P63085); assay: co-IP; as a3, crosslinked chromatin of stimulated cerebral neurons of PARP1-KO mice; Erk2 antibody
[9] = biological target: phosphorylated Erk2 (extracellular signal regulated kinase-2), endogenous in rat cerebral neurons (rat (endogenous in cultured cerebral neurons)) (UniProt P63086); assay: co-IP; nuclear protein extracts of cultured rat cerebral neurons after high frequency stimulation (3 repeats of 1 sec pulse, 100 Hz, 10 sec pause); antibody against the c-terminal of Erk2; Protein A/G Agarose Beads, 1 h, 4 °C

polyADP-ribosylated recombinant human PARP1 (from UniProt P09874 1-1014)
binding [1]: binds
binding [2]: binds
binding [3]: binds

recombinant DNA-binding domain of PARP1 (A-B domain; aa1-201) (from UniProt P09874 1-201) (domain or fragment)
binding [3]: no binding (tested: 5 μg/ml)

recombinant (A-D) auto-modification domain of PARP1 (aa1-524) (from UniProt P09874 1-524) (domain or fragment)
binding [3]: no binding (tested: 5 μg/ml)

recombinant human PARP1 (from UniProt P09874 1-1014)
binding [4]: no binding (condition: with ssDNA (1 μg))
binding [5]: binds
binding [6]: binds
binding [7]: no binding (tested: 5 μg/ml)
binding [2]: binds
binding [3]: binds

CREB, endogenous in mouse cerebral neurons (from UniProt Q01147 1-327)
binding [8]: binds weakly

PARP1 (polyADP-ribose polymerase 1), endogenous in rat cerebral neurons (from UniProt P27008 1-1014)
binding [9]: binds

recombinant PARP1 (1-494aa) (from UniProt P09874 1-494) (domain or fragment)
binding [6]: no binding
